# Laboratory results from paper PMC4336329 (PLoS ONE, 2015).
# Hit rate of the full screen: of about 310,000 compounds, about 2,200 (0.71%) showed an effect of 50% or more. The effect is printed as a negative number. The list shows a part of the results.
# Biological target: human ether-à-go-go-related gene (hERG) potassium channel (human, UniProt Q12809)
# Test: primary screen, population patch clamp on CHO cells stably expressing hERG
# human ether-à-go-go-related gene (hERG) potassium channel, sequence (Q12809 whole entry, looked up): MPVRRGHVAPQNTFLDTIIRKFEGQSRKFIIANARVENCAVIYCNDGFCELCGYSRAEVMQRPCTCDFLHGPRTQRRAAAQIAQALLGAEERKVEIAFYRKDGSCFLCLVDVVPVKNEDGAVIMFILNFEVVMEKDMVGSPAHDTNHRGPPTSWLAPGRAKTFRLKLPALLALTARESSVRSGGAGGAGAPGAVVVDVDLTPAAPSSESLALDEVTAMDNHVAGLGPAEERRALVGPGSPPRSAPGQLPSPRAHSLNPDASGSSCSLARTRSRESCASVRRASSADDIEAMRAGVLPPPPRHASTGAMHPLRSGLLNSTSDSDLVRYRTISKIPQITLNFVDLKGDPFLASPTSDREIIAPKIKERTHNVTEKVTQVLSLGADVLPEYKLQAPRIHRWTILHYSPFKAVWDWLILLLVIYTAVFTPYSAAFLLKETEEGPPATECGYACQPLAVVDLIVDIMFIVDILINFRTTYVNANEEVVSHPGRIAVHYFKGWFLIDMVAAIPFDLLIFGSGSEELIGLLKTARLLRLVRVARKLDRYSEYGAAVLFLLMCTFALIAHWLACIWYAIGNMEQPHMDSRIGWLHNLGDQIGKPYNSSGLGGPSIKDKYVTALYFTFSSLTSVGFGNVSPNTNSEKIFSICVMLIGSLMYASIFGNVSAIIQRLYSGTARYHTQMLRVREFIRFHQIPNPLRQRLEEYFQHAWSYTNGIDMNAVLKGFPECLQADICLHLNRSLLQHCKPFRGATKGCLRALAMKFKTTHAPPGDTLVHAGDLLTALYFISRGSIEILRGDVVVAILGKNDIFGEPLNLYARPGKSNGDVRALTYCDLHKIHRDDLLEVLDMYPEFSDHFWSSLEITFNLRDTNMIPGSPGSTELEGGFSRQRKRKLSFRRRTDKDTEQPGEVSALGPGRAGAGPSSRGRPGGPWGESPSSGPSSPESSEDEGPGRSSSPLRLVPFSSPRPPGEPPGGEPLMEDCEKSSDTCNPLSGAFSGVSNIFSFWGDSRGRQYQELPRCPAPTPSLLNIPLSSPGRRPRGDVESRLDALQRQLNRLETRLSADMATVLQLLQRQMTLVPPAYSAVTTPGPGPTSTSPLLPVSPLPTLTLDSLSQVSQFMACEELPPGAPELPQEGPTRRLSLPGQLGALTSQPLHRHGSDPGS
row,Compound,"hERG current change (%, negative = inhibition) at 1uM [%]"
1,COc1ccccc1-n1ccnc(SCC(=O)NCc2ccccc2)c1=O,19.4
2,Cc1nn(-c2ccccc2)c(N)c1C(O)(C(F)(F)F)C(F)(F)F,14.1
3,O=c1c(C(c2ccc(F)cc2)c2c(O)nc3n(c2=O)CCCS3)c(O)nc2n1CCCS2,16.5
4,O=C(NCCOc1ccc(F)cc1)C1CCC(=O)N(CC2CCCCC2)C1 (stereo not shown),-5.97
5,Cc1c(NC(=O)CSc2ccc(Cl)cc2)c(=O)n(-c2ccccc2)n1C,7.17
6,COC(=O)c1ccc(/C=N/NC(=O)CCSc2nc3ccccc3s2)cc1,4.17
7,COCc1nnc(NC(=O)c2cc3ccccc3o2)s1,26.8
8,Cc1ccccc1N1C(=O)NC(=O)/C(=C\c2ccc3c(c2)CCCN3Cc2ccccc2)C1=O,12.9
9,C=CCN(CC=C)Cc1c(C)[nH]c2c(C)c(C)ccc2c1=O,-2.31
10,Cc1ccc(C(C)C)c(OCC(=O)NN2C(=O)c3ccccc3C2=O)c1,9.73
11,C#CCOCCOCCOCCNc1nc(OC)nc(N2CCN(C(=O)[C@H](CCC(=O)O)n3cc(C(N)CO)nn3)CC2)n1.Cl (stereo partly shown),16.5
12,CC(C(=O)NCC1CCCO1)n1cc([N+](=O)[O-])cn1 (stereo not shown),6.17
13,CN(C(=O)CSc1nnc(-c2ccc(C(C)(C)C)cc2)n1C)C1CCS(=O)(=O)C1 (stereo not shown),11.9
14,O=C(N/N=C/c1ccc([N+](=O)[O-])s1)C(O)c1ccccc1 (stereo not shown),13.8
15,Cn1c(=O)c([N+](=O)[O-])c(-n2cnc3ccccc32)c2ccccc21,7.83
16,CCOC(=O)c1nc2sc3c(c2c(=O)n1C(C)C(=O)OCC)CCCC3 (stereo not shown),16.7
17,CN(Cc1ccccc1)C(=O)CN1C(=O)c2ccccc2S1(=O)=O,10.2
18,COc1ccccc1C(=O)COC(=O)CCNS(=O)(=O)c1ccc(C)c(C)c1,8.59
19,Cc1c(C(=O)Nc2ccccc2F)cnn1-c1ccccc1,14.9
20,CC(C)CC(=O)NC(=S)NNC(=O)c1cccc([N+](=O)[O-])c1,9.65
21,CSc1nsc(SCC(=O)Nc2ccccc2C(N)=O)n1,10.5
22,COc1ccc(NS(=O)(=O)c2cccc(-c3nnc4n3CCCCC4)c2)cc1,6.38
23,O=C(C1=C[C@H](c2ccccc2)C[C@H](OCc2ccc(CO)cc2)O1)N1CCOCC1,13.9
24,O=C(COC(=O)c1ccccc1)Nc1ccccc1Br,-5.29
25,COC(=O)C1=C(C)N=c2s/c(=C/c3ccoc3)c(=O)n2C1c1ccccc1 (stereo not shown),7.23
26,CCCOc1ccc(N2C(=O)CC(NCc3ccncc3)C2=O)cc1 (stereo not shown),1.11
27,O=c1c2c(-c3cccs3)csc2ncn1/N=C/c1ccccn1,10.8
28,O=C(COC(=O)CCCNC(=O)c1ccc(Cl)cc1)Nc1ccc(Br)cc1,2.2

row,Compound,"hERG current change (%, negative = inhibition) at 1uM [%]"
1,Cc1ccc(NC(=O)CN(C)C(=O)c2cccc(S(=O)(=O)NCc3ccco3)c2)cc1,5.16
2,CCOC(=O)N1CCN(C(=O)CSc2nc(=O)n3cc(C)ccc3n2)CC1,-4.56
3,CCn1c(SCC(=O)Nc2ccccc2F)nc2c(c1=O)SC(C)C2 (stereo not shown),8.42
4,Cc1cccc(-n2ncc3c(=O)[nH]c(SCC(=O)N4CC(=O)Nc5ccccc54)nc32)c1,14.6
5,CC(C)OC(=O)CSc1nc(-c2ccc(F)cc2)nc2ccc(F)cc12,4.59
6,COc1ccc(C(C(=O)NC(C)(C)C)N(CCc2ccccc2)C(=O)CCC(=O)Nc2cc(C)on2)cc1 (stereo not shown),-9.67
7,CCc1ccc(NC(=O)Cn2cc([N+](=O)[O-])nc2C)cc1,14.1
8,COC(=O)c1ccccc1NC(=S)N(Cc1ccc2c(c1)OCO2)Cc1cc2cc(C)ccc2[nH]c1=O,10.6
9,CN1CC(=O)N(CC(=O)Nc2ccc(N3CCOCC3)cc2)C1=O,7.8
10,CCCOc1ccc(C2c3c(oc4cc(C)c(C)cc4c3=O)C(=O)N2CCCN2CCOCC2)cc1 (stereo not shown),7.1
11,COc1ccccc1N(CC(=O)Nc1cccnc1)S(C)(=O)=O,14.3
12,CCN(CC)CCn1c(=S)[nH]c2cc3c(cc2c1=O)OCO3,-6.43
13,CN(C)CCOC(=O)/C(=C/c1cn(C)c2ccccc12)NC(=O)c1ccccc1,10.5
14,Cn1c(NC(=O)/C=C\c2ccccc2)cc(=O)n(C)c1=O,7.76
15,Cn1c(=O)[nH]c2sc3c(c2c1=O)CC(C)(C)OC3,-7.97
16,O=C(c1ccccc1NS(=O)(=O)c1ccc(F)cc1)N1CCCC1,-6.03
17,CCCC(c1nnnn1CS(=O)(=O)c1ccc(C)cc1)N1CCN(c2ccccc2)CC1 (stereo not shown),8.22
18,CN1C(C(=O)Nc2cccc(O)c2)=CC(c2ccco2)=NS1(=O)=O,7.8
19,CCn1c(CNc2ccc(OC)cc2)nnc1SCC(=O)c1ccc(OC)cc1,-2.83
20,CCN(CCn1cccn1)C(=O)c1ccc(OC2CCN(C(=O)COC)CC2)cc1,11.4
21,O=C(COc1ccc(S(=O)(=O)NCCc2ccccc2)cc1)N1CCCC1,5.8
22,O=C1OC(CC(=O)N(Cc2nnc(-c3ccccc3Cl)o2)C2CC2)c2ccccc21 (stereo not shown),15.1
23,C/C(=N\NC(=O)c1ccccc1)c1ccc(-n2ccnc2)cc1,8.54
24,CC(=O)c1ccc(NC(=O)C2CCCO2)cc1 (stereo not shown),13.3
25,CCc1nnc(NC(=O)CCC(=O)NCCc2ccc(OC)c(OC)c2)s1,18.4
26,CCC(O)c1nc2ccccc2n1CCc1ccccc1 (stereo not shown),6.15
27,COc1ccc([N+](=O)[O-])cc1NC(=O)CSCc1ccc(Br)cc1,1.65
